# Measurements from the BET-seq Pho4 binding data (Le et al. 2018).
# Some of the results follow. The energies were worked out here from pooled read counts, against the library average; single values are noisy.
# Target: T1, Pho4 (S. cerevisiae) (UniProt P07270)
# T1 sequence: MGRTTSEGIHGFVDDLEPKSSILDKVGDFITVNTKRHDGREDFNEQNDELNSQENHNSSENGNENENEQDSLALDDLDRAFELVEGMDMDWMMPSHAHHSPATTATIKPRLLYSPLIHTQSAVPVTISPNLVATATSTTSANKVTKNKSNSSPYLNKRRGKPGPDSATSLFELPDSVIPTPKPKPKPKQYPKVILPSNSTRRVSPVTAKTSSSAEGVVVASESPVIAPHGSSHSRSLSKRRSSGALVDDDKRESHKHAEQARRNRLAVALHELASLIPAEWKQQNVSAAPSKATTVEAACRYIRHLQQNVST
# Assay: relative binding free energy (BET-seq); higher = weaker binding
# Conditions: reference: library average
row,Sequence,relative binding free energy
1,CTGATCACGTGGTTTA,0.11 kcal/mol
2,TGATGCACGTGTTGTG,-0.06 kcal/mol
3,TATGGCACGTGGTCAT,-0.25 kcal/mol
4,AAAGACACGTGGTTTA,0.09 kcal/mol
5,TGTGGCACGTGGCAGA,-0.25 kcal/mol
6,ATAGACACGTGCTGGT,-0.03 kcal/mol
7,ATACACACGTGGTTGT,-0.11 kcal/mol
8,TTTTTCACGTGTGTAT,0.27 kcal/mol
9,AGTTTCACGTGGCAAT,0.2 kcal/mol
10,TGGGCCACGTGAATAT,0.27 kcal/mol
11,AATCGCACGTGTATGG,-0.06 kcal/mol
12,GATGTCACGTGGCATT,0.23 kcal/mol
13,TTTGTCACGTGACTAG,0.27 kcal/mol
14,TACTGCACGTGGTTTA,0.08 kcal/mol
15,GTTGACACGTGTGAGG,0.13 kcal/mol
16,AACTTCACGTGGGGGG,0.2 kcal/mol
17,GGAGGCACGTGATAGG,-0.01 kcal/mol
18,AGATCCACGTGGGAGG,-0.04 kcal/mol
19,GGCGACACGTGGGGAT,0.05 kcal/mol
20,GTGAGCACGTGGGTAG,-0.22 kcal/mol
21,TAATGCACGTGTTTTG,-0.03 kcal/mol
22,CTTGTCACGTGGAGTG,0.03 kcal/mol
23,AGTTGCACGTGTATGG,0.08 kcal/mol
24,TTGGGCACGTGACAGG,-0.03 kcal/mol
25,ATTGGCACGTGTGTAG,-0.13 kcal/mol

row,Sequence,relative binding free energy
1,ATGATCACGTGTTCGT,0.16 kcal/mol
2,AATCGCACGTGTGGGA,0.12 kcal/mol
3,TTTAACACGTGTCATT,0.12 kcal/mol
4,GAATGCACGTGGGGAT,-0.2 kcal/mol
5,TCAGTCACGTGGAATG,0.1 kcal/mol
6,TTGGACACGTGTGTTC,0.26 kcal/mol
7,ATTCTCACGTGTAAGG,0.16 kcal/mol
8,ACTTACACGTGGGTGG,-0.04 kcal/mol
9,GGTGACACGTGGGTGG,-0.12 kcal/mol
10,CTAGTCACGTGTTGAT,-0.01 kcal/mol
11,ATAGACACGTGGATTA,0.12 kcal/mol
12,GATTGCACGTGCAGTG,0.07 kcal/mol
13,AGAGACACGTGGAGGC,0.08 kcal/mol
14,TTAGTCACGTGGACGA,0.08 kcal/mol
15,CGTGACACGTGATGGT,0.17 kcal/mol
16,TATGACACGTGCTTGG,-0.11 kcal/mol
17,TATTTCACGTGGTGAA,0.18 kcal/mol
18,ATTATCACGTGAGGGC,0.33 kcal/mol
19,GTGATCACGTGAGTGA,0.28 kcal/mol
20,TGAGTCACGTGTATGC,0.04 kcal/mol
21,GTGGCCACGTGGTCTG,-0.16 kcal/mol
22,ATGGACACGTGATGCG,0 kcal/mol
23,GTTGGCACGTGTAAGC,0.2 kcal/mol
24,CTGGACACGTGTTTGA,0 kcal/mol
25,GGGTACACGTGGAAAT,0.24 kcal/mol

row,Sequence,relative binding free energy
1,TATGTCACGTGTTTAG,0.13 kcal/mol
2,GTTCTCACGTGGTTTC,0.51 kcal/mol
3,AGAGTCACGTGTGTGT,0.06 kcal/mol
4,TGACTCACGTGGTTGT,0.06 kcal/mol
5,ATTAGCACGTGGTTTT,-0.07 kcal/mol
6,GGGATCACGTGTTATG,0.23 kcal/mol
7,GCGCACACGTGGGTTG,0.03 kcal/mol
8,TCGGACACGTGAGTTA,0.27 kcal/mol
9,CTATTCACGTGGAAGG,0.26 kcal/mol
10,TGAAGCACGTGGGGTA,-0.18 kcal/mol
11,TGTTCCACGTGAGTCA,0.39 kcal/mol
12,AGGTTCACGTGATTAA,0.32 kcal/mol
13,CTCGACACGTGTGGTG,-0.02 kcal/mol
14,CAATGCACGTGTTTTT,-0.01 kcal/mol
15,GGAAACACGTGGTCTG,0.22 kcal/mol
16,AGTATCACGTGTTCAT,-0.01 kcal/mol
17,GTGTTCACGTGTCTAG,0.2 kcal/mol
18,CTTGACACGTGGGCGT,-0.22 kcal/mol
19,TAAGACACGTGGGGCT,-0.23 kcal/mol
20,AGTGTCACGTGCTGGT,-0.03 kcal/mol
21,GTGATCACGTGTTGCA,0.05 kcal/mol
22,GTGATCACGTGATTAG,0.38 kcal/mol
23,GGGCCCACGTGGGTTT,-0.18 kcal/mol
